Test results: the RNAGym collection of RNA variant scans (doi:10.1093/nar/gkz1192)
Read counts are not given, so values of variants with three or more changes are uncertain.

B1: CPEB3 Ribozyme (parent)
chain: UAACAGGGGGCCACAGCAGAAGCGUUCACGUCGCAGCCCCUGUCAGAUUCUGGUGAAUCUGCGAAUUCUGCUGUAUAUCUC

Variants of: B1
Assay: self-cleavage, relative activity (ratio to wild type); higher = more cleavage; in vitro, sequencing
Outline: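 Relative activity compares each variant's cleaved/total read fraction with that of the unmutated ribozyme. To get these fractions, barcoded CPEB3 ribozyme libraries from rounds of error-prone PCR were transcribed with T7 RNA polymerase for 5 hours at 37°C and then given 15 min of DNase I treatment before EDTA was added. The RNAs were reverse transcribed with template switching and sequenced on Illumina, and DNA sequencing linked barcodes to variants. A minimum of 5 reads applied, and three batches were averaged.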

Variant	self-cleavage
U25A U54G G70A U80C	0.16
U25A U58C U66C	0.12
U25A U60A U74A U80C C81U	0.12
U25A U60C U76C	0.21
U25A U66C U67C	0.46
U25A U69C A75G U76C	0.15
U25A U78C U80A	0.21
U25C A28C U48C	0.28
U25C A28C U67C C79G	0.06
U25C A28C U74C	0.13
U25C A28G A56U U69C	0.2
U25C A28G A65U U72A	0.12
U25C A28G A77G	0.27
U25C A28G C29U A57G U76C U80C	0.14
U25C A28G C38U U54C U69G A77G U80C	0.03
U25C A28G G42U	0.12
U25C A28G U31C U41C C62U U74G A77G	0
U25C A28G U43C U54A U58C	0.05
U25C A28G U49C G55C U69C A75U	0.02
U25C A28G U60C	0.27
U25C A28G U72C A77C	0.09
U25C A28U A35G U49A U60A	0.12
U25C A28U A45C A65G	0.17
U25C A28U A45G A56G	0.2

Variant	self-cleavage
U25C A28U C32A	0.21
U25C A28U G30A U60C U69A U78A	0.08
U25C A28U U43C U72A	0.08
U25C A28U U48A	0.13
U25C A35C A56G	0.26
U25C A35G C37U U60C	0.18
U25C A35G C39U U43C U49C U78C	0.09
U25C A35G U54C	0.1
U25C A35G U58C	0.11
U25C A35G U60A	0.11
U25C A35G U67C U69A	0.05
U25C A35U A47G U54C U58A U66C A75U	0.12
U25C A35U A47G U74A	0.28
U25C A35U A64G U76C	0.15
U25C A35U C38A U60A U66C	0.1
U25C A35U C40U U69A	0.15
U25C A35U U41A A65G U78A	0.04
U25C A35U U51C A65U U69C	0.07
U25C A35U U60C U72C	0.41
U25C A35U U72C	0.07
U25C A45C A56G	0.16
U25C A45G U48C U69C	0.17
U25C A45G U49A C81U	0.01
U25C A45G U51C	0.35

Variant	self-cleavage
U25C A45G U58C	0.29
U25C A45G U66C U72C	0.4
U25C A45U U51C U69A	0.12
U25C A45U U60C	0.39
U25C A45U U67C	0.3
U25C A47C U60A U69A	0.16
U25C A47G G61C A77U	0.23
U25C A47G U48A A56G	0.15
U25C A47G U67C U72C	0.13
U25C A47U U51A A77G	0.14
U25C A56C A57G U58C A64G	0.11
U25C A56G U74C	0.07
U25C A56G U78A	0.04
U25C A56U A64U	0.12
U25C A57G A77U	0.41
U25C A57G U72C	0.24
U25C A57G U78G	0.11
U25C A57G U80C	0.45
U25C A64U A75U	0.3
U25C A65G U76C	0.55
U25C A65G U80C	0.36
U25C A65U C81A	0.16
U25C C27G A64G U78C	0.16
U25C C27G U51G U66C	0.17

Variant	self-cleavage
U25C C27U A45U A47U U49A U69A	0.07
U25C C27U U72C	0.14
U25C C29A A35U A45G A57G C81U	0.17
U25C C29G G42A U78C	0.24
U25C C29U A35G U43A A64G A75U U76G	0.12
U25C C29U U80A	0.04
U25C C32A U41C U51C U54C	0.42
U25C C32U C44A G63U	0.13
U25C C32U U41G U49A G61A U76A	0.05
U25C C32U U66C	0.12
U25C C34U G36U A45G U48C U60C U76C	0.05
U25C C37A A47G U49C U76C	0.14
U25C C37A C39U U48C A57G	0.13
U25C C37A U41C U49C A64U	0.1
U25C C37U C44A U69C	0.09
U25C C37U G53A U72A	0.06
U25C C38A U54A U72G U80C	0.21
U25C C38U A45G	0.58
U25C C38U U43C U76C	0.34
U25C C38U U66C	0.41
U25C C39A U80A	0.23
U25C C39U A45G A56U U78C	0.14
U25C C39U U41C U43A	0.23
U25C C39U U43C U66A	0.15

Variant	self-cleavage
U25C C40A U49C A56G A77G	0.22
U25C C44A A45U U67C	0.08
U25C C44G U51C A64G	0.15
U25C C50A U66C	0.26
U25C C59U A64U U72C	0.1
U25C C71A U78C	0.08
U25C C71G U78C	0.12
U25C G30A U51A U69C	0.15
U25C G30C C44A U54C A77G	0.03
U25C G30C U41G	0.17
U25C G33A U69C U76C	0.07
U25C G33U U67A	0.1
U25C G36A U43A U67A U72C	0.05
U25C G36C C39G C62G U69C	0.13
U25C G36C U58C A64G	0.12
U25C G46A C71G	0.1
U25C G46A U76C U78C	0.08
U25C G46U U69A	0.11
U25C G52A A64G	0.51
U25C G52U U67C U74C	0.15
U25C G53A U80C	0.27
U25C G70C U76C	0.09
U25C G73A U80C	0.14
U25C U26A A57G U72C	0.07

Variant	self-cleavage
U25C U26A A65U U80C	0.38
U25C U26A G33A	0.59
U25C U26A G46A U69C	0.38
U25C U26A G46U C50U U66C	0.05
U25C U26A U41A	0.36
U25C U26A U43C A45U U54C	0.08
U25C U26A U49C	0.26
U25C U26A U54C	0.32
U25C U26C A28G A45U U48C A64C	0.06
U25C U26C A35U U66A A77C U78A	0.11
U25C U26C A45G A56G U80C	0.1
U25C U26C U31C A65U U67A	0.12
U25C U26C U31G A56G A65U A75G	0.06
U25C U26C U31G U43A U60C	0.1
U25C U26C U43A C44A A57U	0.3
U25C U26C U48C U69G U72A	0.04
U25C U26C U51A	0.1
U25C U26C U58A	0.1
U25C U26C U69A U72A U78C	0.07
U25C U31A C37U	0.13
U25C U31A C38A	0.11
U25C U31A C40U U43C A64G C68A	0.07
U25C U31A C59U	0.17
U25C U31A U43C U67C	0.16

Variant	self-cleavage
U25C U31A U69C U72C	0.09
U25C U31A U72C	0.07
U25C U31C U43C A56G U72A C81U	0.1
U25C U31C U43C A64G	0.16
U25C U31C U51G	0.14
U25C U31C U54C U66C	0.13
U25C U31G A56G A57U A65U A75G	0.1
U25C U41A A47G U58A U66C	0.09
U25C U41A A56G A64G C81U	0.04
U25C U41A A57U	0.2
U25C U41A A64C	0.24
U25C U41A A65G U66C U72C	0.07
U25C U41A A77G	0.03
U25C U41A G63A	0.44
U25C U41A U43A U51C U54C A64G	0.08
U25C U41A U51C A56G U80C	0.06
U25C U41A U51C A57G A65G U69A	0.05
U25C U41C A45G U74C	0.1
U25C U41C A47G	0.28
U25C U41C A56U U60C	0.11
U25C U41C A56U U67C	0.11
U25C U41C C62U U69A U76A	0.07
U25C U41C G42A A47G U80C	0.2
